Experimental data reported in the supplement of paper PMC12217912.
Some of the results follow. Sequences were assembled here from the parent chain. Values near 0.05 are background.

B1: TEV protease; numbered along this chain (parent)
chain: MGESLFKGPRDYNPISSSICHLTNESDGHTTSLYGIGFGPFIITNKHLFRRNNGTLVVQSLHGVFKVKDTTTLQQHLVDGRDMIIIRMPKDFPPFPQKLKFREPQREERICLVTTNFQTKSMSSMVSDTSCTFPSGDGIFWKHWIQTKDGQCGSPLVSTRDGFIVGIHSASNFTNTNNYFTSVPKNFMELLTNQEAQQWVSGWRLNADSVLWGGHKVFMVKPEEPFQPVKEATQL

Variants of: B1
Experiment: raw area under fraction-flipped curve 0-4 h after induction (AUC4h, not background-subtracted), DNA-recorder readout of cleavage of the substrate (dimensionless); higher = more cleavage of the substrate by the protease variant
Conditions: temperature: 34 °C; time window: 0-4 h after rhamnose induction
Protocol: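 In vivo DNA recorder in E. coli TOP10(DE3) ΔrhaA at 34 °C. Each TEVp single-site mutant (parent TEVp 0) is paired with a single-site variant of the 7-mer TEVs (canonical ENLYFQ|S). The substrate sits between flexible linkers in a Bxb1-sfGFP-TEVs-SsrA fusion, so cleavage stabilises Bxb1 and speeds flipping of a recombination array, read by NGS. The value is the raw area under the fraction-flipped curve over 0-4 h after rhamnose induction (AUC4h), with ≥20 reads per time point. It is not background-subtracted; inactive controls average about 0.047.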
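Also: Bxb1 expression induced with 0.2% (w/v) L-rhamnose at OD600 near 0.5, cultures sampled hourly, flipped fraction per protease–substrate barcode pair counted by paired-end Illumina sequencing.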

H21T
area with substrate ENLCFQS: 0.0131
area with substrate ENLDFQS: 0.0603
area with substrate ENLEFQS: 0.0506
area with substrate ENLFFQS: 0.0767
area with substrate ENLKFQS: 0.0698
area with substrate ENLLFQS: 0.0773
area with substrate ENLMFQS: 0.0599
area with substrate ENLNFQS: 0.0636
area with substrate ENLQFQS: 0.0417
area with substrate ENLRFQS: 0.0628
area with substrate ENLSFQS: 0.0646
area with substrate ENLVFQS: 0.0699
area with substrate ENLWFQS: 0.0572

V64I
area with substrate ENLCFQS: 0.078
area with substrate ENLDFQS: 0.0654
area with substrate ENLEFQS: 0.0768
area with substrate ENLFFQS: 0.0843
area with substrate ENLHFQS: 0.0697
area with substrate ENLMFQS: 0.0818
area with substrate ENLNFQS: 0.0688
area with substrate ENLSFQS: 0.0608

V64H
area with substrate ENLCFQS: 0.0509
area with substrate ENLDFQS: 0.0611
area with substrate ENLHFQS: 0.0716
area with substrate ENLKFQS: 0.0656
area with substrate ENLPFQS: 0.0516

L22G
area with substrate ENLCFQS: 0.0521
area with substrate ENLDFQS: 0.0452
area with substrate ENLFFQS: 0.0487
area with substrate ENLIFQS: 0.0556
area with substrate ENLKFQS: 0.0482
area with substrate ENLLFQS: 0.0379
area with substrate ENLNFQS: 0.0504
area with substrate ENLPFQS: 0.0349
area with substrate ENLSFQS: 0.0346

V220Q
area with substrate ENLAFQS: 0.07
area with substrate ENLCFQS: 0.0535
area with substrate ENLDFQS: 0.0575
area with substrate ENLEFQS: 0.059
area with substrate ENLFFQS: 0.0935
area with substrate ENLGFQS: 0.0857
area with substrate ENLHFQS: 0.0744
area with substrate ENLIFQS: 0.0625
area with substrate ENLKFQS: 0.0722
area with substrate ENLMFQS: 0.0767
area with substrate ENLNFQS: 0.0601
area with substrate ENLPFQS: 0.0503
area with substrate ENLQFQS: 0.0732
area with substrate ENLSFQS: 0.0375
area with substrate ENLVFQS: 0.0816
area with substrate ENLWFQS: 0.066

D208W
area with substrate ENLAFQS: 0.0606
area with substrate ENLDFQS: 0.0634
area with substrate ENLEFQS: 0.0546
area with substrate ENLFFQS: 0.0522
area with substrate ENLGFQS: 0.0691
area with substrate ENLHFQS: 0.0694
area with substrate ENLIFQS: 0.0596
area with substrate ENLKFQS: 0.0576
area with substrate ENLLFQS: 0.0538
area with substrate ENLMFQS: 0.0922
area with substrate ENLNFQS: 0.0657
area with substrate ENLPFQS: 0.0571
area with substrate ENLQFQS: 0.0589
area with substrate ENLRFQS: 0.0628
area with substrate ENLSFQS: 0.0646
area with substrate ENLTFQS: 0.0372
area with substrate ENLVFQS: 0.0818
area with substrate ENLWFQS: 0.0606

D208Y
area with substrate ENLAFQS: 0.0524
area with substrate ENLCFQS: 0.0611
area with substrate ENLDFQS: 0.0756
area with substrate ENLEFQS: 0.0587
area with substrate ENLFFQS: 0.0604
area with substrate ENLGFQS: 0.0667
area with substrate ENLHFQS: 0.052
area with substrate ENLKFQS: 0.055
area with substrate ENLLFQS: 0.058
area with substrate ENLNFQS: 0.0553
area with substrate ENLPFQS: 0.0633
area with substrate ENLRFQS: 0.0632
area with substrate ENLSFQS: 0.0597
area with substrate ENLVFQS: 0.0253
area with substrate ENLWFQS: 0.0587

G8W
area with substrate ENLCFQS: 0.0429
area with substrate ENLDFQS: 0.0474
area with substrate ENLFFQS: 0.0805
area with substrate ENLHFQS: 0.0663
area with substrate ENLKFQS: 0.064
area with substrate ENLLFQS: 0.0705
area with substrate ENLRFQS: 0.0818
area with substrate ENLSFQS: 0.0527

S16K
area with substrate ENLCFQS: 0.0849
area with substrate ENLDFQS: 0.0702
area with substrate ENLEFQS: 0.0591
area with substrate ENLFFQS: 0.109
area with substrate ENLGFQS: 0.06
area with substrate ENLHFQS: 0.077
area with substrate ENLIFQS: 0.0659
area with substrate ENLKFQS: 0.0977
area with substrate ENLLFQS: 0.0938
area with substrate ENLMFQS: 0.0746
area with substrate ENLNFQS: 0.0715
area with substrate ENLPFQS: 0.0621
area with substrate ENLQFQS: 0.0825
area with substrate ENLRFQS: 0.0618
area with substrate ENLSFQS: 0.0518
area with substrate ENLVFQS: 0.0975
area with substrate ENLWFQS: 0.0831

K221E
area with substrate ENLAFQS: 0.0516
area with substrate ENLDFQS: 0.0756
area with substrate ENLEFQS: 0.0669
area with substrate ENLFFQS: 0.0763
area with substrate ENLHFQS: 0.0894
area with substrate ENLIFQS: 0.0794
area with substrate ENLKFQS: 0.0913
area with substrate ENLLFQS: 0.0475
area with substrate ENLNFQS: 0.0656
area with substrate ENLPFQS: 0.065
area with substrate ENLQFQS: 0.0734
area with substrate ENLRFQS: 0.088
area with substrate ENLSFQS: 0.0758
area with substrate ENLTFQS: 0.0774
area with substrate ENLVFQS: 0.0788

L77P
area with substrate ENLCFQS: 0.0605
area with substrate ENLDFQS: 0.0618
area with substrate ENLEFQS: 0.0992
area with substrate ENLFFQS: 0.0821
area with substrate ENLIFQS: 0.042
area with substrate ENLSFQS: 0.0753
area with substrate ENLWFQS: 0.0502

G214S
area with substrate ENLAFQS: 0.0621
area with substrate ENLCFQS: 0.0762
area with substrate ENLDFQS: 0.0824
area with substrate ENLHFQS: 0.0489
area with substrate ENLIFQS: 0.0642
area with substrate ENLMFQS: 0.0681

G214C
area with substrate ENLAFQS: 0.0449
area with substrate ENLKFQS: 0.0689
area with substrate ENLSFQS: 0.0633

V217W
area with substrate ENLAFQS: 0.0645
area with substrate ENLEFQS: 0.0631
area with substrate ENLFFQS: 0.0798
area with substrate ENLHFQS: 0.0371
area with substrate ENLNFQS: 0.0712
area with substrate ENLPFQS: 0.0473
area with substrate ENLQFQS: 0.0485

E3N
area with substrate ENLCFQS: 0.0928
area with substrate ENLDFQS: 0.0451
area with substrate ENLFFQS: 0.0864
area with substrate ENLKFQS: 0.0448
area with substrate ENLPFQS: 0.0391
area with substrate ENLQFQS: 0.0798
area with substrate ENLRFQS: 0.0846
area with substrate ENLSFQS: 0.0628

G80V
area with substrate ENLCFQS: 0.0416
area with substrate ENLDFQS: 0.0558
area with substrate ENLFFQS: 0.0866
area with substrate ENLHFQS: 0.0597
area with substrate ENLKFQS: 0.072
area with substrate ENLMFQS: 0.0682
area with substrate ENLNFQS: 0.0686
area with substrate ENLPFQS: 0.0585
area with substrate ENLQFQS: 0.0696
area with substrate ENLRFQS: 0.0685
area with substrate ENLTFQS: 0.0669
area with substrate ENLVFQS: 0.0756
area with substrate ENLWFQS: 0.0705
